Read-outs that look alike come from different tables or passages of the source.
Experiments:
[1] = test system: Melanose (Diaporthe citri); details: fruit sampled in July
[2] = test system: Citrus Greasy Spot (Mycosphaerella citri); details: for Citrus Greasy Spot repression, verdict: Example 1, comment on the table; for AVE % INFECTION 2/10/88: mid-summer, Valencia orange, rated seven months later
[3] = test system: greasy spot, Mycosphaerella citri; details: for % REMAINING LEAVES WITH GREASY SPOT / DEFOLIATION: dilute spray in July at 700 gpa; for % REMAINING LEAVES WITH GREASY SPOT: examined in February; for DEFOLIATION: leaves counted in February; for Effectiveness against greasy spot: Example 4, comparison of treatments at the rates of the table
Protocol: In the present example, […] plants (Citrus paradisi ‘Marsh’) were tested with various fungicides to determine the effectiveness in eliminating greasy spot, Mycosphaerella citri.
Spray treatments were applied dilute (applied to point of run off) by handgun in July to 10-foot high trees at a rate equivalent to 700 gpa. Treatments were replicated on 8 single tree plots in a RCB design. Groups of 15 shoots on each of the east/west and east side of each tree were tagged and the initial number of leaves was recorded. In February, remaining leaves were counted and examined for greasy spot.

With `CC1COC(Cn2cncn2)(c2ccc(Oc3ccc(Cl)cc3)cc2Cl)O1` (stereo not shown) [Difenconazole, 1-2[2-[4-(4-chlorophenoxy)-2-chlorophenyl-(4-methyl-1,3-dioxolan-2-l)-methyl]]-1H-1 ,2,4-triazole, reference compound] the “% INFECTION (FRUIT)” value ([1]; 0.5 LB AI/100 gallons, timing June) was 4%, the “Citrus Greasy Spot repression, verdict” value [2] was “desirable fungus repression” and the “AVE % INFECTION 2/10/88” value ([2]; rate 50 gram (gm) AI/100 gallons per acre) was 1.56%. For the same compound, the “AVE % INFECTION 2/10/88” value ([2]; rate 100 gm AI/100 gallons per acre) was 1.0%.
For `O=S(=O)([O-])[O-].[Cu+2].[Cu+2].[Cu+2].[Cu+2].[OH-].[OH-].[OH-].[OH-].[OH-].[OH-]` [Tribasic copper sulfate, reference compound], the “% REMAINING LEAVES WITH GREASY SPOT” value ([3]; 0.75 lb./100 gallons) was 20.1 a %, the DEFOLIATION ([3]; 0.75 lb./100 gallons) was 1.9 a and the “Effectiveness against greasy spot” value [3] was “no significant differences in effectiveness”.
With “Sodium cupric ethylenediamine-di-o-hydroxyphenylacetic acid [Cu-EDDHA]” the “% INFECTION (FRUIT)” value ([1]; 0.2 LB AI/100 gallons, timing June) was 14%, the “% INFECTION (FRUIT)” value ([1]; 0.2 LB AI/100 gallons, timing May-June) was 11% and the “% INFECTION (FRUIT)” value ([1]; 0.2 LB AI/100 gallons, timing May) was 9%. For the same compound, the “% INFECTION (FRUIT)” value ([1]; 0.4 LB AI/100 gallons, timing May-June) was 15%, the “% INFECTION (FRUIT)” value ([1]; 0.4 LB AI/100 gallons, timing May) was 13% and the “% INFECTION (FRUIT)” value ([1]; 0.8 LB AI/100 gallons, timing May-June) was 29%. The “% INFECTION (FRUIT)” value ([1]; 0.8 LB AI/100 gallons, timing May) was 21%, the “Citrus Greasy Spot repression, verdict” value [2] was “excellent results” and the “AVE % INFECTION 2/10/88” value ([2]; rate 0.2 lbs. AI/100 gallons per acre) was 2.5%. For the same compound, the “% REMAINING LEAVES WITH GREASY SPOT” value ([3]; 1.5 gal./100 gallons) was 12.0 a %, the DEFOLIATION ([3]; 1.5 gal./100 gallons) was 0.8 a and the “Effectiveness against greasy spot” value [3] was “no significant differences in effectiveness”.

Source: patent publication US20020193351A1, “Fungicidal and bactericidal compositions for plants containing phosphonate and phosphate salts, metal chelates, and derivatives thereof” (priority 1996, published 2002)
